{"source": "the supplement of paper PMC9446081", "note": "In all, about 39,000 compounds went through this assay and about 220 (0.56%) showed activity. Some of the results follow.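 Also: static incubation at 37 °C against the wild-type strain, values averaged over two biological replicates.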", "data": [{"system": "Escherichia coli K-12 BW25113", "assay": "relative growth (OD600 normalised to plate interquartile mean) (fraction); higher = less growth inhibition, active = 0.2 or less", "conditions": "50 µM; LB; incubation time: overnight (16-24 h)", "values": [{"smiles": "C[C@@H]1CN([C@@H](C)CO)C(=O)c2cc(NC(=O)Nc3ccc4c(c3)OCO4)ccc2O[C@@H](C)CCCCO[C@@H]1CN(C)Cc1ccncc1", "relative growth": "inactive: 0.988"}, {"smiles": "C[C@H]1CN([C@@H](C)CO)C(=O)Cc2cc(NC(=O)c3ccncc3)ccc2O[C@H]1CN(C)S(=O)(=O)c1ccc(F)cc1", "relative growth": "inactive: 0.994"}, {"smiles": "CC(C)CC#Cc1cnc2c(c1)C(=O)N([C@@H](C)CO)C[C@@H](C)[C@@H](CN(C)C(=O)CN1CCOCC1)O2", "relative growth": "inactive: 1"}, {"smiles": "Cc1ccc(S(=O)(=O)N(C)C[C@@H]2Oc3ncc(C#CC4(O)CCCC4)cc3C(=O)N([C@H](C)CO)C[C@@H]2C)cc1", "relative growth": "inactive: 0.883"}, {"smiles": "CC(C)NC(=O)N(C)C[C@H]1OCCCC[C@@H](C)Oc2ccc(NS(C)(=O)=O)cc2C(=O)N([C@H](C)CO)C[C@H]1C", "relative growth": "inactive: 0.985"}, {"smiles": "CCCNC(=O)N1C[C@H](C)[C@H](OC)CN(C)C(=O)c2ccc(NS(=O)(=O)CC(F)(F)F)cc2OC[C@H]1C", "relative growth": "inactive: 0.974"}, {"smiles": "C[C@H]1[C@H]([Si](C)(C)F)[C@@H](CCO)O[C@]12C(=O)N(Cc1cccc(N(C=O)c3ccccc3)c1)c1ccccc12", "relative growth": "inactive: 0.891"}, {"smiles": "C[C@@H]1CN([C@@H](C)CO)C(=O)CCCn2nncc2CO[C@@H]1CN(C)C(=O)c1cc(-c2ccccc2)on1", "relative growth": "inactive: 0.991"}, {"smiles": "O=C(C[C@@H]1C[C@@H]2c3cc(NC(=O)NC4CCCC4)ccc3O[C@@H]2[C@@H](CO)O1)NCc1ccc(Oc2ccccc2)cc1", "relative growth": "inactive: 0.987"}, {"smiles": "C[C@@H]1CN([C@@H](C)CO)C(=O)c2cc(NC(=O)C3CCCCC3)ccc2O[C@@H](C)CCCCO[C@H]1CN(C)C(=O)Nc1cccc2ccccc12", "relative growth": "inactive: 1.01"}, {"smiles": "C[C@@H]1CN([C@@H](C)CO)C(=O)c2cc(NC(=O)CCC(F)(F)F)ccc2O[C@H]1CN(C)Cc1ccc(C(F)(F)F)cc1", "relative growth": "inactive: 0.98"}, {"smiles": "Cc1ccc2nc(SCc3ccc4ccccc4c3)[nH]c2c1", "relative growth": "inactive: 0.969"}, {"smiles": "C[C@H](CO)N1C[C@H](C)[C@H](CN(C)S(=O)(=O)c2cccc(F)c2)Oc2cc(C#CCN(C)C)ccc2S1(=O)=O", "relative growth": "inactive: 1.03"}, {"smiles": "CO[C@H]1O[C@H](CO)[C@@H](OC(=O)Nc2cccc(F)c2)[C@@H]2OC(=O)[C@H](Cc3cccc(Br)c3)C/C=C/C[C@@H](Cc3cccc(Br)c3)C(=O)O[C@@H]12", "relative growth": "inactive: 1.01"}, {"smiles": "COc1ccc(CN(C)C[C@@H]2Oc3ccc(NC(=O)Nc4ccc(C(F)(F)F)cc4)cc3C(=O)N([C@H](C)CO)C[C@@H]2C)cc1", "relative growth": "inactive: 0.988"}, {"smiles": "C[C@H]1CN([C@@H](C)CO)C(=O)c2cc(C3=CCCC3)cnc2O[C@@H]1CN(C)S(=O)(=O)c1cn(C)cn1", "relative growth": "inactive: 0.997"}, {"smiles": "O=C(C[C@@H]1C[C@H]2c3cc(NS(=O)(=O)c4ccc(F)cc4)ccc3O[C@H]2[C@@H](CO)O1)NCc1ccccc1F", "relative growth": "inactive: 0.998"}, {"smiles": "Cc1noc(C)c1S(=O)(=O)N(C)C[C@H]1Oc2ccc(NC(=O)Nc3ccc4c(c3)OCO4)cc2CC(=O)N([C@@H](C)CO)C[C@@H]1C", "relative growth": "inactive: 1.01"}, {"smiles": "COCC(=O)Nc1ccc2c(c1)OC[C@@H](C)N(Cc1ccccc1C(=O)O)C[C@@H](C)[C@H](OC)CN(C)C2=O", "relative growth": "inactive: 0.994"}, {"smiles": "Cc1noc(C)c1S(=O)(=O)Nc1ccc2c(c1)C(=O)N([C@@H](C)CO)C[C@H](C)[C@H](CN(C)S(=O)(=O)c1ccc(Cl)cc1)O2", "relative growth": "inactive: 1.01"}, {"smiles": "COc1ccc(NC(=O)N(C)C[C@H]2Oc3ccc(NC(=O)Nc4cccc5ccccc45)cc3CC(=O)N([C@H](C)CO)C[C@@H]2C)cc1", "relative growth": "inactive: 1"}, {"smiles": "Cc1ccc(S(=O)(=O)Nc2ccc3c(c2)C(=O)N([C@H](C)CO)C[C@@H](C)[C@H](CN(C)C(=O)C2CCCCC2)OCCCC[C@@H](C)O3)cc1", "relative growth": "inactive: 0.913"}, {"smiles": "C[C@@H]1CN([C@H](C)CO)C(=O)c2cccc(NC(=O)Nc3ccc(C(F)(F)F)cc3)c2O[C@@H]1CN(C)Cc1ccc(C(=O)Nc2ccccc2N)cc1", "relative growth": "inactive: 1.01"}, {"smiles": "C[C@H](CO)N1C[C@H](C)[C@H](CN(C)S(C)(=O)=O)Oc2c(NS(=O)(=O)c3cn(C)cn3)cccc2C1=O", "relative growth": "inactive: 1"}, {"smiles": "S=C1NCN(Cc2cccs2)CN1", "relative growth": "inactive: 1.04"}, {"smiles": "CN1CCN(C(=O)C[C@@H]2CC[C@@H]3[C@H](COC[C@@H](O)CN3C(=O)C3CC3)O2)CC1", "relative growth": "inactive: 0.986"}, {"smiles": "COc1ccc(S(=O)(=O)N(C)C[C@H]2Oc3ccc(NC(=O)C4CC4)cc3C(=O)N([C@H](C)CO)C[C@@H]2C)cc1", "relative growth": "inactive: 1.02"}, {"smiles": "NC(=O)CC(N)=S", "relative growth": "inactive: 0.991"}, {"smiles": "Cc1noc(C)c1S(=O)(=O)N(C)C[C@H]1Oc2c(NC(=O)NC(C)C)cccc2C(=O)N([C@H](C)CO)C[C@H]1C", "relative growth": "inactive: 1.01"}, {"smiles": "COc1ccc(S(=O)(=O)Nc2ccc3c(c2)C(=O)N([C@H](C)CO)C[C@H](C)[C@@H](CN(C)C(=O)Nc2ccc(C(F)(F)F)cc2)OCCCC[C@@H](C)O3)cc1", "relative growth": "inactive: 0.999"}, {"smiles": "Nc1nc(S)c2nc[nH]c2n1", "relative growth": "inactive: 0.861"}, {"smiles": "O=C(O)[C@H](O)[C@@H](O)C(=O)O", "relative growth": "inactive: 1.04"}, {"smiles": "CC(=O)OC1CCC2(C)C(CCC3C4CC=C(C(C)=O)C4(C)CCC32)C1", "note": "(stereo not drawn) [3-beta-ACETOXYALLOPREG-16-EN-20-ONE]", "relative growth": "inactive: 0.927"}, {"smiles": "Cc1noc(C)c1S(=O)(=O)N(C)C[C@H]1Oc2ccc(NC(=O)c3ccncc3)cc2C(=O)N([C@H](C)CO)C[C@@H]1C", "relative growth": "inactive: 0.999"}, {"smiles": "NS(=O)(=O)c1cc2c(cc1Cl)NC(C1CC3C=CC1C3)NS2(=O)=O", "note": "(configuration not stated)", "relative growth": "inactive: 1.02"}, {"smiles": "Cc1ccc(N2CCC(CN)CC2)nn1", "relative growth": "inactive: 1"}, {"smiles": "O=C1NS(=O)(=O)c2ccccc21", "relative growth": "inactive: 0.978"}, {"smiles": "C[C@H](CO)N1C[C@H](C)[C@H](CN(C)S(=O)(=O)c2cn(C)cn2)Oc2ncc(C#Cc3ccc(F)cc3)cc2C1=O", "relative growth": "inactive: 0.995"}, {"smiles": "C[C@@H]1CN([C@@H](C)CO)C(=O)Cc2cc(N(C)C)ccc2O[C@H]1CN(C)S(=O)(=O)c1ccc(F)cc1", "relative growth": "inactive: 0.982"}, {"smiles": "COc1ccc(S(=O)(=O)N(C)C[C@@H]2OCCCC[C@@H](C)Oc3ccc(NC(=O)Nc4ccc(C(F)(F)F)cc4)cc3C(=O)N([C@H](C)CO)C[C@H]2C)cc1", "relative growth": "inactive: 1.03"}, {"smiles": "C[C@@H]1CN([C@@H](C)CO)C(=O)Cc2cc(NC(=O)CCN3CCOCC3)ccc2O[C@H]1CN(C)Cc1ccc2c(c1)OCO2", "relative growth": "inactive: 0.998"}, {"smiles": "CN1CCN(C(=O)C[C@H]2CC[C@@H](NC(=O)Cc3ccccn3)[C@@H](CO)O2)CC1", "relative growth": "inactive: 0.987"}, {"smiles": "C[C@H]1CN([C@@H](C)CO)C(=O)c2cc(NC(=O)CCC(F)(F)F)ccc2O[C@@H]1CN(C)Cc1ccc(C(=O)Nc2ccccc2N)cc1", "relative growth": "inactive: 0.981"}, {"smiles": "COc1ccc(S(=O)(=O)N(C)C[C@@H]2Oc3ccc(NC(=O)CCN4CCOCC4)cc3CC(=O)N([C@H](C)CO)C[C@@H]2C)cc1", "relative growth": "inactive: 0.988"}, {"smiles": "COc1cccc(S(=O)(=O)Nc2ccc3c(c2)[C@@H]2C[C@H](CC(=O)NCc4cccc(F)c4)O[C@H](CO)[C@@H]2O3)c1", "relative growth": "inactive: 0.99"}, {"smiles": "CC(C)NC(=O)N(C)C[C@H]1OCCCC[C@H](C)Oc2ccc(NS(=O)(=O)c3cn(C)cn3)cc2C(=O)N([C@@H](C)CO)C[C@H]1C", "relative growth": "inactive: 0.975"}, {"smiles": "COCCN(Cc1ccc(OC)cc1)c1c(C)nc2ccc(C(=O)Nc3ccc(Cl)c(Cl)c3)cn12", "relative growth": "inactive: 0.996"}, {"smiles": "CC(=O)CC(c1ccccc1)c1c(O)c2ccccc2oc1=O", "note": "(configuration not stated)", "relative growth": "inactive: 1.05"}, {"smiles": "C[C@@H]1CCCCO[C@@H](CN(C)C(=O)Nc2ccc(F)cc2)[C@H](C)CN([C@@H](C)CO)C(=O)c2cc(NC(=O)C3CCCCC3)ccc2O1", "relative growth": "inactive: 1.02"}, {"smiles": "C[C@H]1CCCCO[C@H](CN(C)Cc2ccc3c(c2)OCO3)[C@@H](C)CN([C@@H](C)CO)C(=O)c2cc(NC(=O)CCC(F)(F)F)ccc2O1", "relative growth": "inactive: 0.997"}, {"smiles": "C[C@H](CO)N1C[C@H](C)[C@@H](CN(C)S(=O)(=O)c2ccccc2F)Oc2ncc(Br)cc2C1=O", "relative growth": "inactive: 0.983"}, {"smiles": "Cc1noc(C)c1NC(=O)Nc1ccc2c(c1)CC(=O)N([C@H](C)CO)C[C@@H](C)[C@H](CN(C)C(=O)NC(C)C)O2", "relative growth": "inactive: 0.998"}, {"smiles": "c1cc[n+](C[n+]2ccccc2)cc1", "relative growth": "inactive: 0.973"}, {"smiles": "CCCC#Cc1ccc2c(c1)O[C@H](CN(C)C(=O)c1cnccn1)[C@@H](C)CN([C@H](C)CO)S2(=O)=O", "relative growth": "inactive: 0.989"}, {"smiles": "COc1cccc(NC(=O)N(C)C[C@@H]2Oc3cc(C#Cc4ccncc4)ccc3S(=O)(=O)N([C@H](C)CO)C[C@H]2C)c1", "relative growth": "inactive: 0.985"}, {"smiles": "NC(=O)CSc1ncn(-c2ccccc2)n1", "relative growth": "inactive: 0.987"}, {"smiles": "CN1CC(=O)N2CCN(C(=O)c3ccc4n[nH]nc4c3)C[C@@H]2C1=O", "relative growth": "inactive: 0.994"}, {"smiles": "Cc1ccc2[nH]c(=O)c(C3=NN(C(=O)CCC(=O)O)[C@H](c4ccc(Br)cc4)C3)c(-c3ccccc3)c2c1", "relative growth": "inactive: 0.99"}, {"smiles": "C[C@@H]1CN([C@H](C)CO)S(=O)(=O)c2ccc(-c3ccc(F)cc3)cc2O[C@H]1CN(C)C(=O)C1CCOCC1", "relative growth": "inactive: 0.922"}, {"smiles": "C[C@@H]1CCCCO[C@@H](CN(C)C(=O)Nc2ccccc2)[C@H](C)CN([C@@H](C)CO)C(=O)c2cc(NC(=O)c3ccncc3)ccc2O1", "relative growth": "inactive: 0.977"}, {"smiles": "O=c1oc2c(O)c(O)cc3c(=O)oc4c(O)c(O)cc1c4c23", "relative growth": "inactive: 0.84"}, {"smiles": "C[C@H](CO)N1C[C@H](C)[C@H](CN(C)Cc2ccc3c(c2)OCO3)OCCCC[C@H](C)Oc2ccc(NC(=O)Nc3cccc4ccccc34)cc2C1=O", "relative growth": "inactive: 1.03"}]}]}
